Results taken from PubChem BioAssay AID1745845 (National Center for Advancing Translational Sciences (NCATS), 2022).
Several values for one entry are separate records, joined by “and”; a condition that tells them apart may be missing. Equal entries are not always repeated. Screen size: about 360,000 compounds; about 2,600 (0.72%) were called active. The shares of active, inactive and inconclusive entries below differ from those in the screen. Calls follow the shape of the dose curve; as a rule, active = well fitted inhibition curve with a large enough effect; inconclusive = small, poorly fitted or top-dose-only effect; inactive = no such curve, though single readings can be large or run the other way. Potencies of inconclusive entries are doubtful fits and often do not repeat.

assay: Primary qHTS for Inhibitors of ATXN expression; conditions: HEK-293 ATXN2-luciferase reporter, luminescence, 24 h; activity change, negative = inhibition: at 57 µM (top of the series); also: nearly all actives have a fitted effect of over 55% in size
Outline: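 qHTS (up to 57 uM final) was run with 24 h compound exposure of reporter cells at 37 °C. Each well was multiplexed: SteadyGlo luminescence measured ATXN2-luciferase expression after a fluorogenic Gly-Phe-AFC viability readout (25 uM final).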
% is scaled to controls: 0 for no effect and ±100 for the full control effect; potency is read from the fitted curve at half-maximal effect; tags tell the direction and shape of the fitted curve.

| SMILES | Potency | activity change, negative = inhibition |
| --- | --- | --- |
| CSCCC(c1nnnn1-c1ccc2c(c1)OCCO2)N1CCC(n2c(=O)[nH]c3ccccc32)CC1 (configuration not stated) | inconclusive: 15.8 µM [inhibitor, partial curve] | – |
| CN(C)C1(CNC(=O)c2ccc(NS(=O)(=O)c3ccc(Cl)c(Cl)c3)cc2)CCCCC1 | – | inactive: -8.28% |
| O=c1c2ccccc2nc(-c2ccoc2)n1-c1ccccc1Cl | – | inactive: -29.1% |
| COC(=O)C1=C(c2ccc(OC(F)(F)F)cc2)C[C@@H]2CC[C@H]1N2C(=O)N1CCCCC1 | – | inactive: 0% |
| CN1C(=O)NC(=O)/C(=C\C=C\c2ccccc2[N+](=O)[O-])C1=O | active: 31.6 µM | – |
| N[C@@H](Cc1ccc(N(CCCl)CCCl)cc1)C(=O)O | active: 14.1 µM and active: 5.44 µM and inconclusive: 3.98 µM [inhibitor, full curve] | – |
| CN1CCN(c2cccc3c2C(=O)c2ccccc2C3=O)CC1 | inconclusive: 22.4 µM [inhibitor, partial curve, poor fit] | – |
| CN1C(=O)C(=Cc2sc(=O)n(-c3ccccc3)c2N(C)C)C(=O)N(C)C1=O | inconclusive: 29.9 µM [inhibitor, single point] | – |
| COc1cc2c(cc1OC)-c1c(OC)c(OC)c(OC)c3ccnc(c13)C2=O | inconclusive: 2.51 µM [inhibitor, full curve] | – |
| CCC1(C)CC(CCNCc2ccc(N(C)C)cc2)(c2ccc(F)cc2)CCO1 (configuration not stated) | inconclusive: 11.2 µM [inhibitor, partial curve, poor fit] | – |
| COc1ccc(-n2nnnc2C(c2cc3ccccc3o2)N2CCC(n3c(=O)[nH]c4ccccc43)CC2)cc1 (configuration not stated) | active: 7.94 µM | – |
| O=C(O)C1CC2(Cl)C(Cl)=C(Cl)C1(Cl)C2(Cl)Cl (configuration not stated) | – | inactive: -2.69% |
| C[C@]12CCC(=O)C=C1CC[C@@H]1[C@H]3CC[C@](C)(O)[C@@]3(C)CC[C@@H]12 | inconclusive: 31.6 µM [inhibitor, partial curve, poor fit] | – |
| COc1ccc(-n2nnnc2C(CCSC)N2CCC(n3c(=O)[nH]c4ccccc43)CC2)cc1 (configuration not stated) | inconclusive: 28.2 µM [inhibitor, single point] | – |
| O=c1[nH]c2ccccc2n1C1CCN(C(c2cccs2)c2nnnn2Cc2ccccc2)CC1 (configuration not stated) | inconclusive: 25.1 µM [inhibitor, partial curve, poor fit] | – |
| CCCCC(=O)N/N=C/c1c(O)n(Cc2ccc(F)cc2)c(=O)[nH]c1=O | inconclusive: 26.7 µM [inhibitor, partial curve] | – |
| CN(C)CC1Oc2ccccc2OC1(O)c1ccccc1 (configuration not stated) | inconclusive: 39.8 µM [inhibitor, single point] | – |
| Nc1ccc(Cl)cc1C(=O)c1ccccc1Cl | inconclusive: 39.8 µM [inhibitor, single point] | – |
| CN(C)CCN(C)CCc1ccc(Cl)c(Cl)c1 | inconclusive: 27.3 µM [inhibitor, partial curve, poor fit] | – |

| SMILES | Potency | activity change, negative = inhibition |
| --- | --- | --- |
| C=Cc1cc(OC)c2c(c1)c(=O)oc1c2cc(OC)c2c(O)ccc(C3OC(C)C(O)C(C)(O)C3O)c21 (configuration not stated) | active: 1.68 µM | – |
| Ic1ccccc1CN[C@@H]1C2CCN(CC2)[C@@H]1C(c1ccccc1)c1ccccc1 | inconclusive: 28.2 µM [inhibitor, single point] | – |
| N#CC(C#N)=Cc1ccc(-c2ccccc2F)o1 | inconclusive: 25.1 µM [inhibitor, single point] | – |
| COC(=O)C1=C(c2ccc(S(C)(=O)=O)cc2)C[C@@H]2CC[C@H]1N2C | – | inactive: 11.1% |
| COC(=O)C1=C(c2ccc(F)cc2OCc2ccccc2)C[C@@H]2CC[C@H]1N2C(=O)NCc1ccc(C)cc1 | inconclusive: 11.2 µM [inhibitor, partial curve] | – |
| CCCCCCCSc1cc(OC)c(CCNC)cc1OC | inconclusive: 25.1 µM [inhibitor, single point] | – |
| CCCNC1=C(C)C(=O)C2=C(C1=O)C(COC(N)=O)[C@]1(OC)C3NC3CN21 (some centres not stated) | inconclusive: 11.9 µM [inhibitor, partial curve, poor fit] | – |
| CCOC(=O)c1c(-c2ccc(OC)cc2)oc2ccc(OC(=O)N(C)C)cc12 | inconclusive: 20 µM [inhibitor, single point] | – |
| C#CCCC[C@@H]1OC(=O)CNC(=O)C([C@@H](C)CC)NC(=O)[C@@H]2CCCN2C(=O)C([C@@H](C)CC)OC(=O)[C@H](Cc2ccccc2)N(C)C(=O)[C@H](C(C)C)NC(=O)C1(C)C (some centres not stated) | inconclusive: 31.6 µM [inhibitor, partial curve, poor fit] | – |
| C[C@H]1CCC/C=C/C2C[C@H](O)CC2[C@H](O)/C=C/C(=O)O1 (some centres not stated) | inconclusive: 1.41 µM [inhibitor, full curve] | – |
| CCOC(=O)[C@]12Cc3cc4ccccc4cc3[C@H]1N(Cc1ccccc1)C(=O)c1ccccc12 | inconclusive: 25.1 µM [inhibitor, single point] | – |
| CCOC(=O)c1c(C(C#N)=CN)c2ccc(Cl)c(Cl)c2n1C | inconclusive: 24.3 µM [inhibitor, partial curve] | – |
| CC1Oc2cc3c(-c4c(O)cc(O)c5c(O)c6c(cc45)OC(C)C(C)C6=O)c(O)cc(O)c3c(O)c2C(=O)C1C (configuration not stated) | active: 11.2 µM | – |
| CCOc1cccc(=NC2CCCCC2)c2c(C)n(C)c(C)c12 | inconclusive: 10.6 µM [inhibitor, partial curve] | – |
| COC(=O)C1=C(c2ccc3ccccc3c2)C[C@@H]2CC[C@H]1N2C(=O)NCc1ccc(C(F)(F)F)cc1 | inconclusive: 28.2 µM [inhibitor, single point] | – |
| COC(=O)C1=C(c2cc3ccccc3s2)C[C@@H]2CC[C@H]1N2C(=O)N1CCOCC1 | inconclusive: 15.8 µM [inhibitor, partial curve, poor fit] | – |
| COc1ccccc1NC(=O)N(Cc1ccc2c(c1)OCO2)C1CCN(Cc2ccccc2)CC1 | inconclusive: 39.8 µM [inhibitor, single point] | – |
| O=C1NC(=O)N(Cc2ccco2)C(=O)/C1=C/c1ccc(-c2cccc([N+](=O)[O-])c2)o1 | inconclusive: 22.4 µM [inhibitor, partial curve, poor fit] | – |
